Assay results taken from ChEMBL document CHEMBL4888484, “Replenishing the malaria drug discovery pipeline: Screening and hit evaluation of the MMV Hit Generation Library 1 (HGL1) against asexual blood stage Plasmodium falciparum ,using a nano luciferase reporter read-out” (2022).
About 540 (0.36%) of roughly 150,000 compounds showed an effect of 50% or more. This is one part of the list.

The compounds below were run on Plasmodium falciparum (assay: Primary screen in NF54 nanoGlo assay, in single point, at 2uM, 72h; a lower Z score goes with more inhibition). Settings: timepoint 72 hour.
Type: functional, Erythrocyte

| SMILES | % Inhibition [%] | Z score |
| --- | --- | --- |
| O=C(COc1c(F)c(F)c(C(F)(F)F)c(F)c1F)Nc1ccc(Br)cn1 | 3 | -0.36 |
| Cc1noc(COC(=O)C(C)(C)c2cccc(Cl)c2)n1 | -5 | 0.48 |
| CN(C)C[C@@H]1CN(Cc2ccncc2)C[C@H]1NS(=O)(=O)c1ccccc1F | -7 | 1.15 |
| CCc1cc(-c2cnc3ccccc3c2)ccc1NC(C)=O | -3 | 0.33 |
| C[C@H](NCCCn1cccn1)c1ccc(F)cc1N(C)C | -17 | 1.44 |
| CCN(CC)C(=O)N1CCCC(C(=O)NC(c2cccs2)C(C)C)C1 (stereo unspecified) | -6 | 0.71 |
| O=C(Nc1ccc2ncc(Cl)n2c1)c1ccc2c(c1)OCO2 | 5 | -0.53 |
| COCc1nc2n(n1)CC(NC1CCCc3sccc31)CC2 (stereo unspecified) | -13 | 2.06 |
| Cc1nc2nc(-c3ccc(Cl)cc3)nn2c(C)c1CC(=O)NCc1ccccc1 | -5 | 0.81 |
| CO[C@H]1COCC[C@@H]1NC(=O)c1[nH]c2c(F)cccc2c1C | -1 | 0.13 |
| Cc1ccc(C)c(N2CCN(S(=O)(=O)c3cc(-c4nnc(C5CC5)o4)co3)CC2)c1 | 9 | -1.15 |
| CN1CCN(C(=O)CN(CCC(F)(F)F)C2CCCC2)CC1 | -7 | 0.93 |
| CN(Cc1ccccc1)c1nnc(-c2ccccc2)n1C | -6 | 1.22 |
| O=S(=O)(c1cncc(Cl)c1)N1CCOc2ccccc2C1 | -13 | 1.49 |
| Cc1csc([C@@H](C)CNC(=O)Nc2c[nH]c(=O)c(C)c2)n1 | 2 | -0.27 |
| CC1(C)COCN1C(=O)c1cc(OCc2ccccc2)ncn1 | 2 | -0.4 |
| CN1CCN(c2ccc(C(F)(F)F)cc2CN[C@H]2CCCc3[nH]ncc32)CC1 | 4 | -0.67 |
| CN1N=C(C(=O)N[C@H]2CC(=O)N(CC3CCCCC3)C2)CCC1=O | -15 | 1.94 |
| CCc1ccccc1NC(=O)C1CCN(S(=O)(=O)c2cc3c(cc2C)NC(=O)[C@H](CC)O3)CC1 | 17 | -2.02 |
| CN(Cc1ccoc1)C(=O)NCCS(=O)(=O)N(C)C | -1 | 0.16 |
| CCOCCCC(=O)N(c1cccc(N2CCCC2)c1)C1CCCCCC1 | 4 | -0.74 |
| COc1ccccc1OCC[C@H]1CCN(S(=O)(=O)c2ccccc2C)C1 | -9 | 1.71 |
| CC(C)(C)NC(=O)C1(N(CCc2c[nH]c3ccccc23)C(=O)c2ccccc2)CCCC1 | 30 | -3.42 |
